According to PubChem BioAssay AID651820 (National Center for Advancing Translational Sciences (NCATS), 2012):
“And” between values parts separate entries of the source, which are not always exact repeats. Equal entries are not always repeated. Hit rate of the full screen: of about 340,000 compounds, about 12,000 (3.5%) were called active. Inconclusive means that the source gave no clear call. Such entries were picked first, then a sample of the others. Calls come from the whole dose curve; as a rule, active = well fitted inhibition curve with a large enough effect; inconclusive = small, poorly fitted or top-dose-only effect, or another doubt; inactive = no such curve, though single readings can be large or run the other way. Where the call is inconclusive, the potency comes from a doubtful curve fit.
% is set by controls: 0 for no effect and ±100 for the full control effect; potency is the fitted concentration of half-maximal effect; tags give direction and shape of the fitted curve.

Experiment: qHTS Assay for Inhibitors of Hepatitis C Virus (HCV)
Details: Huh7.5.1 HCVcc-Cre (HCVcc is cell-culture hepatitis C virus) infection, luciferase reporter, 44 h; activity change, negative = inhibition: at 41.8 µM (top of the series) unless noted
Method in brief: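 Whole-lifecycle infectious HCVcc-Cre system; cells 1,000/well, compound then virus (~0.5 moi) added 4 h after plating, 44 h culture. Luciferase read 15 sec following 15 min substrate incubation, room temp.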
In the case of `COc1ccc(NC(=O)c2ccc(CN3CCc4ccccc4C3)cc2)c(OC)c1`, the Potency is reported as inconclusive: 11.2 µM [inhibitor, partial curve].
For `O=C(/C=C/c1ccc(Br)cc1)c1ccc(NC(=O)c2ccco2)cc1`, the Potency was “inactive and inconclusive: 31.6 µM [inhibitor, single point]”.
With `CCCCn1c(N)c(N(CCOC)C(=O)c2cc(-c3ccc(F)cc3)nc3ccccc23)c(=O)[nH]c1=O` the “activity change, negative = inhibition” value was inactive: 4.32%.
With `CCOC(=O)c1c(NC(=O)CSc2c[nH]c3ccccc23)sc2c1CCCC2` the Potency was active: 11.2 µM.
In the case of `O=C(Nc1ccc(Nc2ccccc2)cc1)c1ccccc1F`, the Potency is reported as inconclusive: 22.4 µM [inhibitor, single point].
In the case of `O=[N+]([O-])c1ccc(O)c(/C=N/Nc2ncnc3c2cnn3-c2ccccc2)c1`, the Potency is reported as active: 2.82 µM.
For `Cc1ccc(C(=O)C2CCN(C(=S)NCC3CCCO3)CC2)cc1` (stereo not drawn), the Potency was inconclusive: 31.6 µM [inhibitor, single point].
In the case of `Cc1ccc(NC(=O)NCCc2ccc(S(N)(=O)=O)cc2)cc1`, the “activity change, negative = inhibition” value is reported as inactive: -0.152%.
In the case of `O=C(Nc1cccc(C(=O)Nc2ccc(Br)cc2)c1)c1ccccc1`, the Potency is reported as inconclusive: 8.91 µM [inhibitor, partial curve].
For `CCOc1ccc(CN2CCN(C(=O)c3cccc(F)c3)CC2)cc1`, the Potency was active: 11.2 µM.
In the case of `Cc1cc(C)c(C)c(S(=O)(=O)Nc2ccc(O)cc2)c1C`, the Potency is reported as inconclusive: 6.31 µM [inhibitor, full curve, poor fit].
In the case of `Cc1ccc2cc(CN(c3ccccc3C)S(=O)(=O)c3ccccc3)c(=O)[nH]c2c1`, the Potency is reported as inconclusive: 31.6 µM [inhibitor, single point].
With `CCc1c(C#N)c(SCCC(=O)Nc2ccc(OC)cc2)nc2c1C(=O)CC(C)(C)C2` the Potency was inconclusive: 3.55 µM [inhibitor, full curve].
In the case of `Cn1cc([N+](=O)[O-])c(C(=O)Nc2nc(-c3ccc(Cl)cc3)cs2)n1`, the Potency is reported as active: 3.98 µM.
For `CCCOc1ccc(N2C(=O)CC(N(Cc3ccc(OC)cc3)C(=S)Nc3ccccc3)C2=O)cc1` (stereo not drawn), the “activity change, negative = inhibition” value was inactive: 13.9%.
With `COc1ccc(CCC(=O)N2CCN(c3ccc([N+](=O)[O-])cc3)CC2)cc1OC` the Potency was active: 31.6 µM.
In the case of `CCOC(=O)c1ccccc1NC(=O)COC(=O)c1ccccc1C(=O)N(C)c1ccccc1`, the Potency is reported as inconclusive: 8.91 µM [inhibitor, partial curve].
For `Cc1nnc(NC(=O)c2oc3ccccc3c2C)s1`, the “activity change, negative = inhibition” value was inactive: -2.31%.
With `c1ccc(-c2cn3c(n2)CCc2ccc4cccnc4c2-3)cc1` the Potency was inconclusive: 11.2 µM [inhibitor, single point].
With `Cc1ccc(NC(=O)c2ccc(N/N=C/c3cccc(O)c3)c([N+](=O)[O-])c2)cc1` the Potency was inconclusive: 0.891 µM [inhibitor, full curve].
For `O=C(NCc1ccc2c(c1)OCO2)c1ccc(N2CCCCCC2)c([N+](=O)[O-])c1`, the Potency was inconclusive: 10 µM [inhibitor, partial curve].
In the case of `CCNc1nc(NCC)nc(N2CC(=O)N(CC(=O)OCC)C2=N)n1`, the Potency is reported as inconclusive: 2.51 µM [inhibitor, single point].
For `Cc1cc(=O)[nH]c2c(C)c(N)ccc12`, the “activity change, negative = inhibition” value was inactive: 10.1%.
In the case of `CCCn1c(CN2CCN(C(C)=O)CC2)nc2cc(S(=O)(=O)N(C)C)ccc21`, the Potency is reported as inconclusive: 3.98 µM [inhibitor, full curve, poor fit].
For `COc1cc(CNc2ccc3c(c2)CCC3)cc(OC)c1O`, the “activity change, negative = inhibition” value was inactive: 20.8%.
With `CCOc1ccc(CCN2C(=S)N([C@@H](CC(C)C)CN3CCCC3CN3C(=S)NC[C@@H]3CC(C)C)C[C@@H]2Cc2ccccc2)cc1` (stereo partly drawn) the Potency was active: 5.62 µM.
For `COc1ccc2oc(C(=O)OC(C)C(=O)NC3(C#N)CCCCC3)c(C)c2c1` (stereo not drawn), the Potency was inconclusive: 8.91 µM [inhibitor, partial curve].
In the case of `CCOc1ccc(NC(=O)C2CCCN(c3nn4c(=O)cc(C)nc4s3)C2)cc1` (stereo not drawn), the Potency is reported as inconclusive: 3.55 µM [inhibitor, partial curve].
In the case of `CC1S/C(=N/N=C/c2cccc([N+](=O)[O-])c2)NC1=O` (stereo not drawn), the Potency is reported as inconclusive: 22.4 µM [inhibitor, single point].
In the case of `O=C(NCCc1ccccc1)C1CCC(CNc2c(N3CCCCC3)c(=O)c2=O)CC1` (stereo not drawn), the “activity change, negative = inhibition” value is reported as inactive: -0.857%.
In the case of `OC(CN1C2=NCCCN2c2ccccc21)c1ccc(Br)cc1` (stereo not drawn), the Potency is reported as inconclusive: 10 µM [inhibitor, single point].
For `COc1ccccc1Nc1nc(-c2cccnc2)cs1`, the Potency was inconclusive: 31.6 µM [inhibitor, single point].
With `CCCCCc1ccc(OCCCC[n+]2ccc(C)cc2)c(CCCCC)c1` the Potency was active: 6.31 µM.
In the case of `COc1cccc(C(=O)Nc2cccc(OCC(=O)c3ccccc3)c2)c1`, the Potency is reported as inconclusive: 22.4 µM [inhibitor, single point].
With `CCN(CC)C(=O)c1ccc(COc2ccccc2Br)o1` the Potency was inconclusive: 20 µM [inhibitor, single point].
For `CN(C)S(=O)(=O)c1ccc(S(=O)(=O)N2CCCC(C(=O)NC3CCCC3)C2)cc1` (stereo not drawn), the Potency was inconclusive: 2.82 µM [inhibitor, partial curve].
For `COc1ccc(Cl)cc1S(=O)(=O)NCCCn1ccnc1`, the “activity change, negative = inhibition” value was inactive: 15.1%.
With `COc1ccc(C(=O)N2CCN=C2SC)cc1` the “activity change, negative = inhibition” value was inactive: -7.9%.
For `CCc1ccc2c(c1)c1nnc(NN)nc1n2CC`, the Potency was inconclusive: 11.2 µM [inhibitor, partial curve].
With `Cc1ccc(C(=O)OC(C)C(=O)c2cc(C)c(C)cc2C)o1` (stereo not drawn) the Potency was inconclusive: 2.82 µM [inhibitor, single point].
In the case of `COc1cc(C(=O)Nc2cccc(NC(=O)c3cccs3)c2)cc(OC)c1OC`, the Potency is reported as inconclusive: 3.16 µM [inhibitor, full curve].
In the case of `CCc1c(C)nc2cc(-c3cccc(Br)c3)[nH]n2c1=O`, the Potency is reported as inconclusive: 14.1 µM [inhibitor, single point].
For `O=C(CCC(=O)c1ccc(Cl)cc1)OCc1nc2ccsc2c(=O)[nH]1`, the “activity change, negative = inhibition” value was inactive: 17.3%.
In the case of `Cc1cc(C(=O)N/N=C/c2ccc([N+](=O)[O-])s2)c2ccccc2n1`, the Potency is reported as active: 11.2 µM.
For `O=C(CSc1ccc(Cl)cc1)Nn1cnnc1`, the “activity change, negative = inhibition” value was inactive: 15.2%.
For `Cc1ccc(C(=O)OCC(=O)NCc2ccccc2)cc1S(=O)(=O)N1CCCCC1`, the “activity change, negative = inhibition” value was inactive: -5.06%.
With `Cc1csc(NC(=O)CSc2nnc(-c3ccoc3C)n2C(C)c2ccccc2)n1` (stereo not drawn) the Potency was inconclusive: 11.2 µM [inhibitor, single point].
For `Cc1cccc2cc(CN(Cc3nnnn3Cc3ccco3)C3CCCC3)c3nnnn3c12`, the Potency was inconclusive: 6.31 µM [inhibitor, partial curve] and inconclusive: 3.55 µM [inhibitor, partial curve].
In the case of `Cc1ccc(C(=O)C2=C(O)C(=O)N(Cc3cccnc3)C2c2ccc(Cl)cc2)o1` (stereo not drawn), the “activity change, negative = inhibition” value is reported as inactive: 18.6%.
In the case of `OCCSc1nc(-c2cccnc2)nc2ccccc12`, the Potency is reported as inconclusive: 7.08 µM [inhibitor, single point].
With `CCOC(=O)c1c(C)[nH]c(C(=O)OCC(=O)Nc2cc(Cl)ccc2OC)c1C` the “activity change, negative = inhibition” value was inactive: 13.3%.
For `CCOc1ccc(NC(=O)CN2CCCC2c2cccs2)cc1S(=O)(=O)N1CCCCC1` (stereo not drawn), the Potency was inconclusive: 22.4 µM [inhibitor, single point].
With `CC(=O)NC(CC(=O)Nc1cccc(S(=O)(=O)N2CCOCC2)c1)c1ccccc1` (stereo not drawn) the activity change, negative = inhibition was inconclusive: -93.7% [inhibitor].
For `COc1ccc(-c2c(C)nn3c(C)cc(C)nc23)cc1`, the Potency was active: 11.2 µM.
In the case of `CC(=O)n1cc([C@@H]2C=C(C(=O)N3CCN(Cc4ccccc4)CC3)O[C@H](OCc3ccc(CO)cc3)C2)c2ccccc21`, the Potency is reported as inconclusive: 14.1 µM [inhibitor, partial curve].
In the case of `N#CCSc1nccc(/C=C/c2ccccc2)n1`, the Potency is reported as inconclusive: 31.6 µM [inhibitor, single point].
For `CC(C)(C)NC(=O)C(OC(=O)Cn1nnc(-c2ccc(F)cc2)n1)c1ccncc1` (stereo not drawn), the “activity change, negative = inhibition” value was inactive: 3.43%.
In the case of `CC(C)(C)c1ccc(-c2cc(-c3ccccc3O)[nH]n2)cc1`, the Potency is reported as inconclusive: 31.6 µM [inhibitor, single point].
With `Cc1[nH]c2ccccc2c1/C=N/NC(=O)CNC(=O)c1ccco1` the Potency was inconclusive: 5.62 µM [inhibitor, single point].
With `COc1ccc(C2=NOC(Cn3nc(C(=O)NCc4ccc5c(c4)OCO5)cc3-c3ccccc3)C2)cc1` (stereo not drawn) the Potency was inconclusive: 1.78 µM [inhibitor, full curve, poor fit].
In the case of `Cc1ccccc1N=C1SCC(=O)N1Cc1ccccc1`, the Potency is reported as inconclusive: 35.5 µM [inhibitor, partial curve].
In the case of `CCCn1nc(NC(=O)C2CCCO2)c2cc3cccc(C)c3nc21` (stereo not drawn), the Potency is reported as active: 11.2 µM.
With `O=C(CN1C(=O)C2CCCCC2C1=O)Nc1cc([N+](=O)[O-])ccc1F` (stereo not drawn) the “activity change, negative = inhibition” value was inactive: 12.4%.
With `COc1ccc(C2c3ccc4ccccc4c3Oc3ncn(CCCN(C)C)c(=N)c32)cc1` (stereo not drawn) the Potency was inconclusive: 7.08 µM [inhibitor, partial curve].
For `CN/C(=C/[N+](=O)[O-])NCCSCc1ccc(CN(C)C)o1`, the Potency was inconclusive: 3.16 µM [inhibitor, single point].
With `COC(CNC(=O)c1ccc(Cn2c(=S)[nH]c3cc4c(cc3c2=O)OCO4)cc1)OC` the Potency was inconclusive: 6.31 µM [inhibitor, full curve, poor fit].
In the case of `O=C(NCCc1nc2ccccc2[nH]1)c1ccc([N+](=O)[O-])cc1`, the Potency is reported as inconclusive: 12.6 µM [inhibitor, single point].
With `C[N+](C)(C)CCC(=O)N1C/C(=C/c2ccccc2)C(=O)/C(=C\c2ccccc2)C1` the Potency was inconclusive: 11.2 µM [inhibitor, single point].
